Source: the supplement of paper PMC3334620
In all, about 33,000 sequences were measured (“E-score (-0.5 to 0.5)”: median about -0.032, highest 2% from about 0.36 on). Some of the results follow.

Target: T1, Sko1 (UniProt Q02100)
T1 sequence: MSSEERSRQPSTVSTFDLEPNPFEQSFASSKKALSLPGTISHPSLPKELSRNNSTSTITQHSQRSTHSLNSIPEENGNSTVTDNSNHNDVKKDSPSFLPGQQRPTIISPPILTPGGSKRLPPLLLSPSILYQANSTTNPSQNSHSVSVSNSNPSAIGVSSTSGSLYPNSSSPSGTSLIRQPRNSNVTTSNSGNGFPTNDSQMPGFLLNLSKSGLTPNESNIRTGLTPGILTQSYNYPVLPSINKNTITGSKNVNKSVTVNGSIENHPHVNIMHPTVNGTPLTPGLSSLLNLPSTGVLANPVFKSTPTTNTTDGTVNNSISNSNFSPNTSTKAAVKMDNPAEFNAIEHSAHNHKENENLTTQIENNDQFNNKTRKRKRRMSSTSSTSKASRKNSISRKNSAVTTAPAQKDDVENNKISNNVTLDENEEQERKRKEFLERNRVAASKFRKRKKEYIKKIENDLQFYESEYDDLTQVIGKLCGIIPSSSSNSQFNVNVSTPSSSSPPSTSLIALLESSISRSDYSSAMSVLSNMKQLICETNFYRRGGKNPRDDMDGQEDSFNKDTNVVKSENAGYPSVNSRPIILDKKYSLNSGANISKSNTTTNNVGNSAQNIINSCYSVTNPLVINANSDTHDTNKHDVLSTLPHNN
Experiment: PBM E-score (8-mer binding enrichment) (E-score (-0.5 to 0.5)); higher = stronger / more preferred TF binding; most listed sequences are background and not binding sites
Details: protein concentration: 200 nM; construct: GST-full length
Method in brief: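 Masliner-normalised scans of fluorescent anti-GST signal were the basis for scoring. That signal came from GST-tagged yeast transcription factors applied at about 100-200 nM to double-stranded universal all-10-mer Agilent arrays on fresh or once-stripped slides. Each ungapped eight-base word, pooled with its reverse complement, received an E-score from the Universal PBM Analysis Suite.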

Point of comparison: CTTCCAGA, “PBM E-score” value -0.114. Against it:
- AGTTGCAC — higher, -0.0625
- ACTCAATC — higher, 0.0835
- TAGTTAGA — higher, 0.0533
- ACGTTCGC — higher, 0.221
- AGAACGGC — lower, -0.152
- CCATGAAC — lower, -0.203
- TATGGACA — higher, 0.0569
- AATCAACG — higher, 0.115
- ACTGGCTC — lower, -0.212
- CAAAAATA — higher, 0.184
- GGTTGTAC — lower, -0.158
- ATGAACGC — higher, 0.145
- GTCGAAAC — higher, -0.00733
- GCCACGCC — higher, -0.109
- ATAGCGTC — higher, 0.215
- CTACAGGC — lower, -0.239
- CACTTCGA — higher, 0.0708
- ACATGTTG — higher, 0.122
- CCAAATCC — lower, -0.208
- GCGAGGGA — lower, -0.289
- ACATTTCC — higher, -0.00076
- GATTCAGC — higher, -0.0762
- TCCTATAA — higher, 0.0318
- GAAGACAA — higher, 0.082
- TGAAGAAA — higher, 0.0769
- CAATAATG — higher, 0.164
- GCCTAGAA — lower, -0.121
- CTATCCGA — higher, -0.0706
- CCACATCC — lower, -0.129
- CAGACTGG — lower, -0.201
- CTAGTCAA — higher, -0.0871
- GGGTAGAC — lower, -0.243
- CGGCCAAG — lower, -0.324
- ACCATGAT — higher, 0.172
- TTGGCAAA — higher, 0.121
- TAATGGCA — higher, 0.099
- CTCTTGCA — lower, -0.169
- ATCTCACC — higher, -0.0481
- ACATCCTC — lower, -0.17
- ACCTTGAC — higher, -0.058
- CGCTCGCC — lower, -0.179
- CTCCGCGA — lower, -0.199
- AGTCTCCA — higher, -0.0977
- GGTGTGTA — higher, -0.107
- GCTCAAGA — lower, -0.215
- CTGTATTC — higher, -0.0125
- CCATTGCC — lower, -0.183
- CCGATGAG — lower, -0.155
- CCGAATCC — lower, -0.231
- ACGCTAAT — higher, 0.0454
- CAGGACGG — lower, -0.216
- ATCTCAAT — higher, 0.206
- ACAGTGCT — higher, -0.0575
- AGTCACTG — higher, 0.00358
- GGCTGGAC — lower, -0.241
- CTCCTTAA — lower, -0.265
- ATTTAAAC — higher, 0.221
- ACGAACTC — higher, 0.217
- ATATGTCG — higher, 0.184
- AATATACA — higher, 0.228
- CGTGTTCA — higher, 0.203
- GGTGGTGA — higher, 0.0184
- TAACCTTA — lower, -0.156
- AAGGCTCT — lower, -0.308
- CACTCACC — higher, -0.112
- AGAAGAAT — higher, 0.0232
- AGTCCCCC — lower, -0.312
- ATGTCCCC — lower, -0.167
- ATTACTTC — higher, 0.105
- CCTTTGGA — lower, -0.296
- CTCTTAAA — higher, 0.0524
- CTTATATC — higher, 0.207
- AGGATAGA — higher, -0.0612
- AGATCCCC — lower, -0.171
- CCTAATCA — higher, 0.0917
- AGCCCATG — higher, -0.0868
- ATGGCATA — higher, 0.126
- AGTCTCGG — lower, -0.24
- CGACTATA — higher, 0.197
- AGCCCTAA — higher, -0.0892
- ACACACGA — higher, 0.213
- CTATCCAC — lower, -0.127
- ACTGGATC — lower, -0.116
- ATACTGCA — higher, -0.00618
- CGCCACTC — higher, -0.102
- CAGATCAG — higher, -0.00687
- AAAGCGCC — lower, -0.172
- AAATGAAT — higher, 0.0285
- AGATAATA — higher, 0.164
- CGTTCCTA — higher, 0.047
- AGAGAAAT — higher, 0.15
- AAACGTGG — higher, 0.213
- GAGGTGCA — higher, -0.0175
- GCTCCTAA — higher, -0.0432
- AGGATCCC — lower, -0.148
- CCCTCGCA — lower, -0.183
- GGTCAAAC — higher, -0.0302
- GCAACTGA — higher, 0.0735
- GCTCAGAA — higher, -0.0677
- GTCGGAAC — higher, -0.0708
- ACACGCAG — higher, 0.184
- GGGATAAA — higher, -0.0675
- CCTTTTGC — lower, -0.208
- ACTTTAAG — higher, 0.156
- GCATCCGC — higher, -0.0501
- ACGCCTGC — lower, -0.173
- ATCGGCCC — lower, -0.133
- AAACAGAA — higher, 0.0315
- CCTCACTA — higher, 0.00316
- TATTAGGA — higher, 0.126
- CTCATACA — higher, 0.0729
- CGGCGTAA — higher, 0.175
- AATTCCAA — higher, 0.0336
- GCATGTGA — higher, 0.00111
- GTCGCATA — higher, 0.267
- GACATGCA — higher, 0.0403
- ATGGGTCG — lower, -0.179
- CGACAGCA — higher, -0.0646
- CGACCTTC — lower, -0.189
- AGGCCTTC — higher, -0.0878
- ACCTGAGT — higher, -0.0461
- AGATACAG — higher, 0.0229
- ACTGGCAG — lower, -0.222
- GATCTCGA — higher, -0.11
- GGACGGTA — higher, -0.00632
- AGGACGAT — higher, 0.05
- CGCGCATA — higher, 0.0284
- AGGAACCG — higher, -0.113
- CACGCGAC — higher, 0.213
- ATCGGAAT — higher, 0.0673
- GCCTGTCA — lower, -0.157
- CCTCTGGA — lower, -0.152
- ACATAAGG — higher, 0.199
- CCGTTCGC — lower, -0.129
- AACTGACG — higher, 0.363
- ACACCCTA — higher, 0.0359
- AAGCAACC — higher, 0.133
- AGTTGAAG — lower, -0.187
- CCGCAGCC — lower, -0.206
- CACATAAC — higher, 0.0655
- AACACATC — higher, 0.105
- GGTTACTA — lower, -0.155
- AGAGCGCT — higher, -0.0154
- ATCCGACG — higher, 0.156
- CCTTTAAA — higher, 0.102
- GCGACGAA — higher, 0.0338
- ACGTAAAA — higher, 0.463
- AAGCAATG — higher, 0.0184
- TAAGGCTA — higher, -0.0609
- AAGAGATT — higher, 0.0256
- ACCTTACA — higher, -0.0158
- CCGCACGC — higher, -0.0325
- CCCTTGTC — lower, -0.249
- GGAGATAA — higher, 0.0184
- ATAGTGCC — lower, -0.161
- CTAATGCC — higher, -0.0148
- GGTATCGA — higher, -0.0372
- ACCTCACG — higher, 0.124
- AGAGGATG — higher, -0.0999
- AACACAGG — lower, -0.237
- CGTGAACC — higher, -0.0441
- CTTCGGTA — higher, 0.0125
- AGTTCGAA — higher, 0.0291
- GTAACAAA — higher, 0.235
- CACTGACC — lower, -0.26
- CTCTCAAC — higher, -0.00822
- GCCTCTTA — lower, -0.13
- AGGCTAAG — lower, -0.147
- CGATTACC — higher, -0.0987
- AGACAAAT — higher, 0.141
- CTTCGCTA — higher, 0.078
- TCAGAGAA — higher, 0.00926
- CATATAAG — higher, 0.0398
- ACCGTATC — higher, 0.00217
- CTTCATAA — higher, 0.0763
- AATACCGC — higher, -0.0868
- CCACTAGG — lower, -0.399
- CATTGACC — higher, 0.114
- GGGTCCTA — lower, -0.285
- ACTTCCAT — higher, 0.105
- GGTCGCAC — higher, -0.0515
- CGACAACA — higher, 0.147
- ATTTTCCA — higher, 0.109
- GCTGTGCC — lower, -0.124
- CCAATAAG — higher, -0.0069
- GAGCTACC — lower, -0.212
- GAGAAGCC — lower, -0.267
- TGCCCGAA — higher, 0.0767
- GTATCCGA — higher, -0.0312
- CCACGGAA — higher, 0.00634
- GAAGTCGC — lower, -0.139
- ACGCCTTA — higher, -0.00766
- CGTCAGTA — higher, 0.327
- AAAACGAG — higher, 0.065
- CCGGCGAG — lower, -0.247
- GAGGGAGC — lower, -0.34
- AGGTTTAA — higher, -0.0197
- TGATATAA — higher, 0.238
- ATCCCCTG — lower, -0.173
- ACTGCTTG — lower, -0.192
- ACTACAGA — higher, 0.228
- GTCATCAC — higher, 0.368
- AATATTAG — higher, 0.222
- GCCTCTCC — lower, -0.41
- GAACACAA — higher, 0.0558
- ATCGCGCA — higher, 0.0939
- AAGCCATC — higher, -0.0222
- ATGCTGAA — higher, 0.0457
- CAGCCGAC — lower, -0.266
- ATTAGTTA — higher, 0.262
- CACGTCCA — higher, 0.254
- AGACCTGA — lower, -0.227
- TCCTTAGA — higher, -0.103
- AGACTATC — higher, -0.0534
- ATTCAGTG — lower, -0.116
- TAGGGAGA — higher, -0.0896
- AGGCGTGC — higher, -0.0649
- ACAGTAGG — higher, -0.082
